# Some of the results follow.
# B1: HPAIIITrx (Helix pomatia), Q1KM18 (protein)
# chain: MLFVTIISLGLLAIVHGQCALKTIAFSAAIDREQTFDANQVVIYDIVITNHGNAYDNSTGLFTAPVDGMYSFQLNLLTIKEKEGWLELVHNGQLKVSVYAKQDSTYDSSSNSVIIKMKEGDRVNVRAHKKSGLFGRDDELYNTFSGHFLSGL
# Experiments:
# Test in all cases: glycan array binding signal (z-score within array); higher = stronger binding
# Conditions in all cases: glycan notation: IUPAC condensed, linker removed
# [1] = molecular target: GlcNAc(b1-2)Man(a1-3)[GlcNAc(b1-4)][GlcNAc(b1-2)Man(a1-6)]Man(b1-4)GlcNAc(b1-4)[Fuc(a1-6)]GlcNAc
# Summary of the method: (§1)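 Glycan array data came from 3228 arrays in the Consortium for Functional Glycomics database, and only arrays with an available protein sequence were kept. Glycan names were put into IUPAC-condensed notation, and columns mapping to the same glycan were averaged. The binding signal is a within-array Z-score, averaged across arrays of one protein sequence run at different concentrations or buffers and across linkers. A negative Z-score can be read as non-binding.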
# [2] = molecular target: GlcNAc(b1-2)[GlcNAc(b1-4)]Man(a1-3)[GlcNAc(b1-2)Man(a1-6)]Man(b1-4)GlcNAc(b1-4)GlcNAc
# Summary of the method: as §1
# [3] = molecular target: GlcNAc(b1-2)[GlcNAc(b1-4)]Man(a1-3)[GlcNAc(b1-4)][GlcNAc(b1-2)Man(a1-6)]Man(b1-4)GlcNAc(b1-4)GlcNAc
# Summary of the method: as §1
# [4] = molecular target: GlcNAc(b1-2)[GlcNAc(b1-4)]Man(a1-3)[GlcNAc(b1-4)][GlcNAc(b1-2)[GlcNAc(b1-6)]Man(a1-6)]Man(b1-4)GlcNAc(b1-4)GlcNAc
# Summary of the method: as §1
# [5] = molecular target: GlcNAc(b1-2)[GlcNAc(b1-4)]Man(a1-3)[GlcNAc(b1-4)][GlcNAc(b1-2)[GlcNAc(b1-6)]Man(a1-6)]Man(b1-4)GlcNAc(b1-4)[Fuc(a1-6)]GlcNAc
# Summary of the method: as §1
# [6] = molecular target: GlcNAc(b1-2)[GlcNAc(b1-6)]Man(a1-6)[GlcNAc(b1-2)Man(a1-3)]Man(b1-4)GlcNAc(b1-4)GlcNAc
# Summary of the method: as §1
# [7] = molecular target: GlcNAc(b1-2)[GlcNAc(b1-6)]Man(a1-6)[GlcNAc(b1-2)Man(a1-3)]Man(b1-4)GlcNAc(b1-4)[Fuc(a1-6)]GlcNAc
# Summary of the method: as §1
# [8] = molecular target: GlcNAc(b1-2)[GlcNAc(b1-6)]Man(a1-6)[GlcNAc(b1-4)][GlcNAc(b1-2)Man(a1-3)]Man(b1-4)GlcNAc(b1-4)GlcNAc
# Summary of the method: as §1
# GlcNAc(b1-3)Fuc = molecular target: GlcNAc(b1-3)Fuc
# Summary of the method: as §1
# GlcNAc(b1-3)Gal = molecular target: GlcNAc(b1-3)Gal
# Summary of the method: as §1
# [9] = molecular target: GlcNAc(b1-3)Gal(b1-3)GalNAc
# Summary of the method: as §1
# GlcNAc(b1-3)Gal(b1-4)Glc = molecular target: GlcNAc(b1-3)Gal(b1-4)Glc
# Summary of the method: as §1
# [10] = molecular target: GlcNAc(b1-3)Gal(b1-4)GlcNAc
# Summary of the method: as §1
# [11] = molecular target: GlcNAc(b1-3)Gal(b1-4)GlcNAc(b1-2)Man(a1-3)[GlcNAc(b1-3)Gal(b1-4)GlcNAc(b1-2)Man(a1-6)]Man(b1-4)GlcNAc(b1-4)GlcNAc
# Summary of the method: as §1
# [12] = molecular target: GlcNAc(b1-3)Gal(b1-4)GlcNAc(b1-2)Man(a1-3)[GlcNAc(b1-3)Gal(b1-4)GlcNAc(b1-2)Man(a1-6)]Man(b1-4)GlcNAc(b1-4)[Fuc(a1-6)]GlcNAc
# Summary of the method: as §1
# [13] = molecular target: GlcNAc(b1-3)Gal(b1-4)GlcNAc(b1-2)[GlcNAc(b1-3)Gal(b1-4)GlcNAc(b1-6)]Man(a1-6)[GlcNAc(b1-3)Gal(b1-4)GlcNAc(b1-2)Man(a1-3)]Man(b1-4)GlcNAc(b1-4)GlcNAc
# Summary of the method: as §1
# [14] = molecular target: GlcNAc(b1-3)Gal(b1-4)GlcNAc(b1-3)Gal(b1-4)GlcNAc
# Summary of the method: as §1
# [15] = molecular target: GlcNAc(b1-3)Gal(b1-4)GlcNAc(b1-3)Gal(b1-4)GlcNAc(b1-2)Man(a1-3)[GlcNAc(b1-3)Gal(b1-4)GlcNAc(b1-3)Gal(b1-4)GlcNAc(b1-2)Man(a1-6)]Man(b1-4)GlcNAc(b1-4)GlcNAc
# Summary of the method: as §1
# [16] = molecular target: GlcNAc(b1-3)Gal(b1-4)GlcNAc(b1-3)Gal(b1-4)GlcNAc(b1-2)Man(a1-3)[GlcNAc(b1-3)Gal(b1-4)GlcNAc(b1-3)Gal(b1-4)GlcNAc(b1-2)Man(a1-6)]Man(b1-4)GlcNAc(b1-4)[Fuc(a1-6)]GlcNAc
# Summary of the method: as §1
# [17] = molecular target: GlcNAc(b1-3)Gal(b1-4)GlcNAc(b1-3)Gal(b1-4)GlcNAc(b1-2)[GlcNAc(b1-3)Gal(b1-4)GlcNAc(b1-3)Gal(b1-4)GlcNAc(b1-6)]Man(a1-6)[GlcNAc(b1-3)Gal(b1-4)GlcNAc(b1-3)Gal(b1-4)GlcNAc(b1-2)Man(a1-3)]Man(b1-4)GlcNAc(b1-4)[Fuc(a1-6)]GlcNAc
# Summary of the method: as §1
# [18] = molecular target: GlcNAc(b1-3)Gal(b1-4)GlcNAc(b1-3)Gal(b1-4)GlcNAc(b1-3)Gal(b1-4)GlcNAc(b1-2)Man(a1-3)[GlcNAc(b1-3)Gal(b1-4)GlcNAc(b1-3)Gal(b1-4)GlcNAc(b1-3)Gal(b1-4)GlcNAc(b1-2)Man(a1-6)]Man(b1-4)GlcNAc(b1-4)GlcNAc
# Summary of the method: as §1
# [19] = molecular target: GlcNAc(b1-3)Gal(b1-4)GlcNAc(b1-3)Gal(b1-4)GlcNAc(b1-3)Gal(b1-4)GlcNAc(b1-2)Man(a1-3)[GlcNAc(b1-3)Gal(b1-4)GlcNAc(b1-3)Gal(b1-4)GlcNAc(b1-3)Gal(b1-4)GlcNAc(b1-2)Man(a1-6)]Man(b1-4)GlcNAc(b1-4)[Fuc(a1-6)]GlcNAc
# Summary of the method: as §1
# [20] = molecular target: GlcNAc(b1-3)Gal(b1-4)GlcNAc(b1-3)Gal(b1-4)GlcNAc(b1-3)Gal(b1-4)GlcNAc(b1-2)[GlcNAc(b1-3)Gal(b1-4)GlcNAc(b1-3)Gal(b1-4)GlcNAc(b1-3)Gal(b1-4)GlcNAc(b1-6)]Man(a1-6)[GlcNAc(b1-3)Gal(b1-4)GlcNAc(b1-3)Gal(b1-4)GlcNAc(b1-3)Gal(b1-4)GlcNAc(b1-2)Man(a1-3)]Man(b1-4)GlcNAc(b1-4)[Fuc(a1-6)]GlcNAc
# Summary of the method: as §1
binder,measurement,setting,value
B1,glycan array binding signal (z-score),[1],-0.48
same,glycan array binding signal (z-score),[2],-0.41
same,glycan array binding signal (z-score),[3],-0.42
same,glycan array binding signal (z-score),[4],-0.387
same,glycan array binding signal (z-score),[5],-0.517
same,glycan array binding signal (z-score),[6],-0.381
same,glycan array binding signal (z-score),[7],-0.399
same,glycan array binding signal (z-score),[8],-0.453
same,glycan array binding signal (z-score),GlcNAc(b1-3)Fuc,-0.39
same,glycan array binding signal (z-score),GlcNAc(b1-3)Gal,-0.437
same,glycan array binding signal (z-score),[9],-0.233
same,glycan array binding signal (z-score),GlcNAc(b1-3)Gal(b1-4)Glc,-0.205
same,glycan array binding signal (z-score),[10],-0.37
same,glycan array binding signal (z-score),[11],-0.364
same,glycan array binding signal (z-score),[12],-0.158
same,glycan array binding signal (z-score),[13],-0.003
same,glycan array binding signal (z-score),[14],-0.404
same,glycan array binding signal (z-score),[15],0.693
same,glycan array binding signal (z-score),[16],-0.228
same,glycan array binding signal (z-score),[17],-0.265
same,glycan array binding signal (z-score),[18],-0.4
same,glycan array binding signal (z-score),[19],-0.269
same,glycan array binding signal (z-score),[20],-0.301
